“And” between values parts separate entries of the source, which are not always exact repeats. Equal values may be shown once. The source gives many values for each of these; only a part stands here.

Series [1] has as its system P. falciparum stage V gametocytes. Description: P. falciparum gametocyte viability assay (MitoTracker, flow cytometry), stage V. Particulars: 48 h, replicate values, source data Fig. 2D. It is filed as cell-based, Plasmodium falciparum. As for the experimental part: Gametocyte assays commenced seven days (stage III–IV) or ten days (stage V) post-invasion. […]
Plasmodium falciparum Gametocyte Viability Assays:
Asexual P. falciparum parasites were induced to form gametocytes as described (21).
Synchronized trophozoite-stage parasites at 2% parasitaemia were incubated overnight and […]
haematocrit maintained at 4%. On the subsequent day (designated as day 0) of gametocytogenesis, the culture containing early ring-stage parasites was first purified by sorbitol synchronisation to remove asynchronous trophozoites, and passed through a magnetic field in a sterile MACS® column in a SuperMACSTM II magnet to remove remaining late-stage parasites or later-stage gametocytes (negative selection). The culture medium was supplemented with 50 mM N-acetyl-D-glucosamine to inhibit asexual parasite proliferation, and changed daily. Sorbitol treatment was performed on Day 1, 5, and 6 to further remove asexual parasites. Gametocytes were magnetically enriched (positive selection) in a sterile column with a SuperMACSTM II magnet and eluted in culture media with 50 mM N-acetyl-D-glucosamine. These gametocytes were incubated overnight at 37 °C under microaerophilic conditions, and purity was assessed by examination under a light microscope (400× […]
Gametocyte viability was assessed as described by Ridgway et al. (21) with modifications.
Compounds or solvent controls (DMSO) were serially diluted across 96-well plates in culture media supplemented with 50 mM N-acetyl-D-glucosamine. Culture media without compound was used as a negative control. […]
control to determine background gametocyte fluorescence. Stage III-IV gametocytes (Day 7) or stage V (day 10) gametocytes were concentrated and added to the plate with 200 µL per well. The plate was incubated for 48 hours at 37 °C under humid microaerophilic conditions.
Parasites were then stained with 500 nM MitoTrackerTM Deep Red FM and 5 μg/ml Hoechst […]
cytometer as described above. […]
excluded. Live (positive) and dead (negative) gametocytes were differentiated by […]
percentage of each was calculated. […]

A further series deals with P. berghei liver stages. The series can be described thus: Plasmodium berghei liver stage growth inhibition assay (luminescence, in Huh7 cells).
The test system of series [2] is asexual P. falciparum 3D7 wild-type parasites. The series can be described thus: P. falciparum asexual growth inhibition assay (SYBR Safe DNA replication). Particulars: individual replicates. The format is cell-based, Plasmodium falciparum. Also noted: unit not given here. As for the experimental part:
P. falciparum asexual parasite assays commenced with ring-stage parasites at 1% parasitaemia and 1% haematocrit. 200 nM chloroquine (Sigma C6628) or artesunate (Sigma A3731) was used as a no-growth control. DNA replication (indicating growth) was measured at the specified time using SYBR Safe DNA Gel Stain (Invitrogen 33102) and a fluorescence microplate reader (Smilkstein et al, [2004]; Spry et al, [2013]). […]
Growth and Viability Inhibition Assays:
Plasmodium falciparum Growth Inhibition Assays:
P. falciparum parasites were maintained under routine culture conditions in red blood cells and RPMI 1640-Hepes with Glutamax, supplemented with 10 mM D-glucose, 480 μM hypoxanthine, 20 μg/mL gentamicin, 0.375% (w/v) AlbuMAXTM II (Thermo Fisher 11021029), and 2.5% v/v heat-inactivated human serum (17). Cultures were maintained at 37 °C […]
wildtype parasites except for the ring stage survival assay, as specified. Cultures were synchronised with 5% w/v D-sorbitol (18).
Growth inhibition was investigated according to methods described by Smilkstein et al. (19) with modifications by Spry et al. (20). Compounds or solvent controls (DMSO, ethanol, or ethyl acetate) were serially diluted 2-fold across flat-bottom 96-well plates. Culture media without compound was used as a negative control. 200 nM chloroquine (Sigma C6628) or artesunate (Sigma A3731) was used as a positive control to determine background fluorescence. The parasitaemia of a culture containing predominantly ring stage parasites was counted by Giemsa smear. The parasitaemia was adjusted to 1% by addition of fresh uRBCs and added to the plate at a final haematocrit of 1%, with 200 µL per well. The plates were incubated at 37 °C under humid microaerophilic conditions. After 24, 48, or 72 hours, the plates were transferred to a -18 °C freezer to stop the assay and lyse cells. Plates were thawed and lysate was mixed 1:1 with SYBR Safe DNA Gel Stain (Invitrogen 33102) (final concentration 1/10,000) diluted in lysis buffer (20 mM TRIS, 5 mM EDTA, 0.008% w/v Saponin, 0.08% w/v Triton-X 100, pH 7.5). Fluorescence was detected at 490 nm excitation/ 520 nm emission on a FLUOstar Optima fluorescence plate reader (BMG Labtech).

Consider `CC(C)OC(=O)CCC(=O)O[C@H]1CC[C@H]2[C@@H]3CC=C4C[C@@H](O)CC[C@]4(C)[C@H]3CC[C@]12C` [C-17-link], for which the “Gametocyte stage V viability, percentage of control” value is 102.3% and 104% and 93.7% and 112.7% (2×) and 92.07% and 106.5% and 101.7% and 98.77% in series [1] (3.125000000 uM, listed as HJB8a53, 3.125 µM); 98.33% and 94.03% and 100.5% and 100.6% and 87.88% and 104.3% and 102.9% and 99.6% in series [1] (6.250000000 uM, listed as HJB8a53, 6.25 µM); 95.22% and 89.73% and 104% and 99.1% and 91.22% and 105.8% and 107.5% and 102.2% in series [1] (12.500000000 uM, listed as HJB8a53, 12.5 µM); 91.73% and 91.59% and 92.22% and 97.42% and 94.87% and 81.03% and 110.7% and 111.2% and 112% in series [1] (25.000000000 uM, listed as HJB8a53, 25 µM); 75.77% and 59.8% and 55.21% and 99.78% and 99.3% and 100.6% in series [1] (50.000000000 uM, listed as HJB8a53, 50 µM). Also, the “Figure 3E dose-response value (replicates)” value (“Figure 3E dose-response value” below) with P. berghei liver stages (0.146484380 uM, listed as HJB8a53) was 90.79 and 78.12 and 89.75 and 97.61 and 99.99 and 98.63 and 88.77 and 86.39 and 83.1 and 99.95 and 100.6 and 95.29; with P. berghei liver stages (0.292968750 uM, listed as HJB8a53) it was 95.19 and 94.42 and 99 and 104.1 and 87.97 and 92.72 and 101.8 and 92.86.

For the compound `COc1cc(NC(C)CCCNC(=O)CCC(=O)OC(C)C)c2ncccc2c1` (stereo not shown) [PQ-link], the “Gametocyte stage V viability, percentage of control” value was 101.8% and 103.7% and 94.55% and 118.3% and 107.7% and 99.73% and 98.74% and 100.8% and 99.04% in series [1] (3.125000000 uM, listed as BC9B, 3.125 µM); 114% and 106.6% and 105.1% and 110.1% and 99.87% and 97.45% and 101.5% and 95.48% in series [1] (6.250000000 uM, listed as BC9B, 6.25 µM); 112.9% and 98.39% and 99.38% and 104.7% and 104% and 107% and 107.3% and 101.1% in series [1] (12.500000000 uM, listed as BC9B, 12.5 µM); 92.32% and 86.87% and 97.01% and 99.59% and 94.68% and 100.4% and 103.8% and 98.04% in series [1] (25.000000000 uM, listed as BC9B); 85.37% and 92.77% and 92.47% in series [1] (50.000000000 uM, listed as BC9B). In addition, the “Figure 3E dose-response value” value in the series on P. berghei liver stages (0.238281250 uM, listed as BC9B) is 93.15 and 103.5 and 101.7 and 106.3 and 90.54 and 94.19 and 89.14 and 93.63 and 95.68 and 95.58.

Take `CC(C)CCC[C@@H](C)[C@H]1CC[C@H]2[C@@H]3CC=C4C[C@@H](O)CC[C@]4(C)[C@H]3CC[C@]12C` [Cholesterol, cholesterol]: the “Figure 5B dose-response source data (growth, replicate values)” value is 101.6 and 99.26 and 99.31 and 98.29 and 102.8 and 99.42 and 104.4 and 95.79 and 103.3 and 96.14 and 91.63 and 97.29 and 100.5 and 102.7 and 101.1 and 98.36 and 94.97 and 94.59 and 95.55 and 99.39 and 95.02 and 99.46 and 99.52 and 99.91 in series [2] (Concentration 6.25 uM); 96.51 and 99.41 and 95.16 and 101 and 102.3 and 98.39 and 106.9 and 102.4 and 101.7 and 97.74 and 91.35 and 94.52 and 98.72 and 99.19 and 99.51 and 98.63 and 99.71 and 94.45 and 102.1 and 99.24 and 95.53 and 100.2 and 99.61 and 97.62 in series [2] (Concentration 12.5 uM); 104.5 and 98.95 and 98.24 and 96.83 and 100.4 (3×) and 98.96 and 105.9 and 103.2 and 102.2 and 98.9 and 96.25 and 93.37 and 102 and 90.39 and 101.7 and 103.5 and 97.16 and 99.16 and 97.58 and 97.63 and 97.76 and 100.6 in series [2] (Concentration 25 uM); 105.5 and 103.2 and 99.32 and 111.9 and 112.8 and 111.5 and 109.4 and 103.5 and 98.62 and 94.35 and 86.9 and 89.19 and 90.74 and 91.87 and 96.95 and 99.38 and 95.61 and 91.66 and 96.98 and 98.91 and 100.4 and 94.97 and 99.41 and 95.99 in series [2] (Concentration 50 uM); 107.1 and 101 and 101.2 and 91.32 and 91.42 and 102 and 108.7 and 103.8 and 102.1 and 93.61 and 89.6 and 96.17 and 88.16 and 93.69 and 102.9 in series [2] (Concentration 100 uM); 96.83 and 98.35 and 97.37 and 112.6 and 105.5 and 95.82 and 90.9 and 97.54 and 99.36 and 99.34 and 99.77 and 101.6 in series [2] (Concentration 200 uM).

Turning to `COc1cc(NC(C)CCCN)c2ncccc2c1` (stereo not shown) [Primaquine, primaquine, reference compound], the “Gametocyte stage V viability, percentage of control” value in series [1] (0.781250000 uM, 0.78125 µM) is 91.21% and 93.39% and 74.28% and 105.6% and 104.2% and 91.9% and 101.3% and 93.78% and 87.93%; in series [1] (1.562500000 uM, 1.5625 µM) it was 105.4% and 111.1% and 108.1% and 106.4% and 97.73% and 90.01%; in series [1] (6.250000000 uM, 6.25 µM), 70.7% and 76.18% and 69.51% and 90.42% and 81.91% and 83.33% and 97.43% and 92.99% and 87.8%; in series [1] (12.500000000 uM, 12.5 µM), 50.67% and 50.19% and 41.61% and 72.64% and 71.86% and 71.08% and 76.41% and 66.89% and 61.15%; in series [1] (25.000000000 uM) it was 11.08% and 12.68% and 6.662% and 21.73% and 24.41% and 21.34% and 46.34% and 43.12% and 32.49%; in series [1] (50.000000000 uM), 0.4307% and -0.2779% and -0.1528% and 0.1058% and 0.1764% and -0.2822% and 3.679% and 2.542% and 1.792%. Also, the “Gametocyte stage V viability, percentage of control” value was -0.6113% and -0.5696% and -0.5904% and -0.4586% and -0.635% and -0.5644% and 0.043% and 0.01881% and 0.05106% in series [1] (100.000000000 uM); -0.5904% (2×) and -0.6321% and -0.5644% and -0.5292% and -0.635% and 0.01881% and -0.0215% and 0.002687% in series [1] (200.000000000 uM). The “Figure 3E dose-response value” value in the series on P. berghei liver stages (1.703125000 uM) is 85.28 and 88.56 and 83.73 and 86.56.

Source of the values: PMC11251039, “Harnessing cholesterol uptake of malaria parasites for therapeutic applications” (EMBO Molecular Medicine, 2024).
